Some of these densities may be calculated back from excess volumes.
Experiment: xn = mol fraction of the nth substance listed
Conditions: 100 kPa

CN1CCCC1=O + CCCC[n+]1ccn(C)c1.F[B-](F)(F)F
x1 = 1
Conditions | mass density [kg/m3]
298.15 K | 1027.1
303.15 K | 1022.6
308.15 K | 1018.2
313.15 K | 1013.7
318.15 K | 1009.3

CCCC[n+]1ccn(C)c1.F[B-](F)(F)F + CN1CCCC1=O
mass density [kg/m3]
Conditions | x2 = 0 | x2 = 0.108 | x2 = 0.2114 | x2 = 0.3061 | x2 = 0.4422 | x2 = 0.5097 | x2 = 0.6155 | x2 = 0.7054 | x2 = 0.8025 | x2 = 0.9025
298.15 K | 1198.8 | – | 1178.8 | 1168.9 | 1151.9 | 1142.2 | 1125.2 | 1108.7 | 1088.3 | 1061.1
303.15 K | 1195.2 | 1184.8 | 1175.1 | 1165.3 | 1148.2 | 1138.3 | 1121.3 | 1104.7 | – | 1056.8
308.15 K | 1191.6 | – | 1171.4 | – | 1144.3 | 1134.5 | 1117.3 | – | 1080.1 | 1052.6
313.15 K | 1188 | 1177.6 | – | 1157.9 | 1140.6 | 1130.8 | – | 1096.7 | 1076 | –
318.15 K | 1184.5 | 1174 | – | 1154.2 | 1136.8 | 1126.9 | 1109.5 | 1092.7 | 1071.9 | 1044.1
323.15 K | 1181 | – | 1160.6 | 1150.5 | 1133.1 | 1123.2 | 1105.6 | 1088.7 | 1067.8 | 1039.8
